Publication PMC4336329 (PLoS ONE, 2015)
The whole screen tested about 310,000 compounds, of which about 14,000 (4.5%) showed an effect of 50% or more. The effect is printed as a negative number. Some of the results follow.

Molecular target: human ether-à-go-go-related gene (hERG) potassium channel (human, UniProt Q12809)
Assay: primary screen, population patch clamp on CHO cells stably expressing hERG
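Note: peak tail current of the secondary pulse compared with the same well before compound.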

Sequence of human ether-à-go-go-related gene (hERG) potassium channel (Q12809 whole entry, looked up): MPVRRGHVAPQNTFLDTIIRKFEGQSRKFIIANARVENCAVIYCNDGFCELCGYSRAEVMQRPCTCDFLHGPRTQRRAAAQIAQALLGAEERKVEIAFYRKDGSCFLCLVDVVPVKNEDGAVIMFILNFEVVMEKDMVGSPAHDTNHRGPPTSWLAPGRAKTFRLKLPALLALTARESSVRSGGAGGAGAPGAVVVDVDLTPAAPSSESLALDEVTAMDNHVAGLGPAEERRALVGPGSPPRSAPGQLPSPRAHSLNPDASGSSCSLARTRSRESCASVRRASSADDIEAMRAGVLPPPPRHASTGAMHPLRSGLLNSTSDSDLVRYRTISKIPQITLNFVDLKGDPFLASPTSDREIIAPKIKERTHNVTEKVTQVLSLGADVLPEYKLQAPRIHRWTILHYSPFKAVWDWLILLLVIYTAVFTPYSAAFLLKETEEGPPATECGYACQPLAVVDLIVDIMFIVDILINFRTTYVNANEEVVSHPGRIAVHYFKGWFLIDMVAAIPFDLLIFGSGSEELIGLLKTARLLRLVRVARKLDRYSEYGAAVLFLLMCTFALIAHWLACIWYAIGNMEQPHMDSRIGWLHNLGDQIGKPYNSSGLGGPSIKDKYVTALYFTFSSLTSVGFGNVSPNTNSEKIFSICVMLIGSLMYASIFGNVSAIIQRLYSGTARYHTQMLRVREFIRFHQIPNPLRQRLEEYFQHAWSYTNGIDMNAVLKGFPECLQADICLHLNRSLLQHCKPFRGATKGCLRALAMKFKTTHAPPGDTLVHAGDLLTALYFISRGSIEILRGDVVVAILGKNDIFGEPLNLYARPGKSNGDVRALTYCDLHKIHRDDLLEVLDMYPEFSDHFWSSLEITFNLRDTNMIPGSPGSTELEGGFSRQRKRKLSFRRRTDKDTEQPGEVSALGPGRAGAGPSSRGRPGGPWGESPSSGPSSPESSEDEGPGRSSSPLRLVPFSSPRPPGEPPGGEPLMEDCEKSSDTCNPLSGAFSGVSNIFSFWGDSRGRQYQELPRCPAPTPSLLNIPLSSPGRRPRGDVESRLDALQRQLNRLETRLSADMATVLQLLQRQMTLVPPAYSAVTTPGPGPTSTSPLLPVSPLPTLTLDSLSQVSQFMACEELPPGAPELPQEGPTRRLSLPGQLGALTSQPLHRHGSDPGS

Row | SMILES | hERG current change (%, negative = inhibition) at 10uM
1 | CSc1ccccc1OCc1cc(C(=O)NC2CCc3ccccc32)no1 (centres unmarked) | 19.6%
2 | O=C(Nc1ccccc1Cl)O/N=C/c1ccncc1 | -4.2%
3 | O=C(OCc1cccc(C(F)(F)F)c1)c1ccc[nH]c1=O | 7.91%
4 | Cc1nc(CSc2ccc(Cl)cc2)cc(N2CC(C)OC(C)C2)n1 (centres unmarked) | -4.52%
5 | CCOc1ccccc1N(CC(=O)NC1CCCCC1)S(C)(=O)=O | 4.57%
6 | COC(=O)c1cnc(Oc2c(Cl)cc(N)cc2Cl)cc1C(F)(F)F | 4.01%
7 | CCOc1cccc(CN(C)CC2CCCN(CCc3ccc(Cl)cc3)C2)c1O (centres unmarked) | -69.7%
8 | CCCCC(=O)Nc1nnc(SCC(=O)N2CCN(c3ccccc3OC)CC2)s1 | 8.63%
9 | CSc1c(C#N)c(N)nc2sc(C(=O)c3ccc(Cl)c(Cl)c3)c(N)c12 | 1.87%
10 | O=C(NCCOc1ccccc1F)C1CCC(=O)N(CCc2cccc(F)c2)C1 (centres unmarked) | -35.8%
11 | CCN(c1ccccc1C)S(=O)(=O)c1cc2c3c(c1)CCC(=O)N3CCC2 | -11.2%
12 | O=C(/C=C/c1ccccn1)c1ccc(Br)cc1O | 16.9%
13 | COC(=O)c1cc(=O)n(CCc2ccccc2)c(=Nc2ccc(F)cc2)s1 | 16.7%
14 | O=C1NC(=S)N/C1=C/c1cccc([N+](=O)[O-])c1O | 7.66%
15 | Cc1ccc(NC(=O)CC(C)S(=O)(=O)c2ccc3c(c2)NC(=O)CO3)cc1C (centres unmarked) | 7.73%
16 | COc1ccc(/C=C/C(=O)O)cc1S(=O)(=O)N1CCCC1 | 2.45%
17 | COc1cc(S(=O)(=O)Nc2cccnc2)ccc1Cl | 2.14%
18 | COc1ccc(N2CC(C(=O)Nc3ccc(S(=O)(=O)Nc4nc(C)cc(C)n4)cc3)CC2=O)cc1 (centres unmarked) | 7.84%
19 | O=C1N=C(c2ccccc2)C(c2ccccc2)N1 (centres unmarked) | -6.89%
20 | CCN1C(=O)S/C(=C/c2ccc(Sc3nc4ccccc4[nH]3)o2)C1=O | 8.34%
21 | O=C(Nc1nnc(CC2=CCCCC2)s1)Nc1ccccc1F | 4.93%
22 | CC(=O)Nc1ccc(NC(=O)c2ccc3c(c2)CCN3S(C)(=O)=O)cc1 | 16.3%
23 | CCCCC12CN3CCN(CC(C3)/C1=N\NC(=O)Nc1ccccc1)C2 | -32.5%

Row | SMILES | hERG current change (%, negative = inhibition) at 10uM
24 | COC(=O)c1ccc(NC(=O)CO/N=C2\CCCc3nonc32)cc1 | -4.31%
25 | COc1cc(Cl)c(C)cc1NC(=O)CN1C(=O)C2CCCCC2C1=O (centres unmarked) | -8.62%
26 | Cc1[nH][nH]c(=O)c1C=NCc1cccnc1 | 23.6%
27 | Cc1cccc(-n2cc(-c3ccccc3)[nH]c2=S)c1 | 4.11%
28 | Cc1nc2c(ncn2-c2ccccc2)c(=O)n1NC(=O)CN1CCOCC1 | 14.4%
29 | CN(C)CCCNc1ccc(S(N)(=O)=O)cc1[N+](=O)[O-] | -13.1%
30 | Cc1cc(/C=C2\SC(=O)N(C)C2=O)c(C)n1-c1cccc(C(=O)O)c1 | 17.9%
31 | CCOC(=O)c1sc(NC(=O)CCc2ccc(OC)cc2)nc1C | 24.5%
32 | CCC(C)NC(=O)/C=C/c1ccc(S(=O)(=O)NCc2ccco2)cc1 (centres unmarked) | -4.31%
33 | CCOc1ccc(C(=O)CC(=O)C(=O)NCCc2ccc(OC)c(OC)c2)cc1 | -10%
34 | Cc1ccc(N2C(=O)N(CC(=O)Nc3cccc(Cl)c3)C(=O)C2C)cc1 (centres unmarked) | -14.9%
35 | CCOCCCNC(=O)C(c1ccc(Cl)cc1)N1CCN(C(=O)c2ccco2)CC1 (centres unmarked) | -0.366%
36 | CC(NC(=O)COc1ccc(/C=N/NC(=O)C(=O)Nc2ccccc2Br)cc1)c1ccccc1 (centres unmarked) | -9.07%
37 | Cc1cc(C)cc(NC(=S)NCc2cccs2)c1 | -10.7%
38 | O=S(=O)(Nc1n[nH]c(C(F)(F)F)n1)c1ccccc1 | -5.34%
39 | CC12CCC(=O)N1C(C(=O)NNC(=O)c1cccc(Cl)c1)CS2 (centres unmarked) | 14.8%
40 | CCCCN(CC)CCCNC(=S)Nc1ccc2nc3n(c(=O)c2c1)CCCCC3 | -11.9%
41 | CCCCCCSC1=C(C#N)C(c2ccc(C)o2)CC(=O)N1 (centres unmarked) | -0.783%
42 | CC(C)=CC(=O)OCC(=O)Nc1ccc(SC(F)F)cc1 | -9.84%
43 | Cc1ccccc1OCC(=O)NCCC(=O)O | 12.1%
44 | O=C1CC(=O)N(c2ccccc2F)C(=O)N1 | 23.8%
45 | COc1cc(/C=C/C(=O)NCc2ccccn2)cc(OC)c1OC | 6.44%
46 | Cc1ccc(/C=N/NC(=O)CSc2nc3ccccc3n2Cc2ccccc2)o1 | -33.9%

Row | SMILES | hERG current change (%, negative = inhibition) at 10uM
47 | Clc1ccccc1-c1nnc(-c2ccc3c(c2)OCO3)o1 | 4.43%
48 | CC(C)Oc1ccc(NC(=O)C2CCCNC2=O)cc1 (centres unmarked) | 14.1%
49 | CC(C)OCCCN1CN(S(=O)(=O)c2cccs2)c2nc3ccccc3nc21 | -12.1%
50 | CC(Nn1cnnc1)c1cc(Cl)ccc1O (centres unmarked) | 17.2%
51 | C=CCn1c(=O)c2ccccc2n2c(SCC(=O)NCCc3ccccc3)nnc12 | -9.99%
52 | C/C=C/C(=O)OCC(=O)Nc1c(Cl)cccc1Cl | 4.91%
53 | Cc1nn(Cc2ccccc2)c(Cl)c1C(=O)OCC(=O)N1CCCC1 | 8.91%
54 | CC1(C(=O)NC2CCCC2)CCC(=O)N1Cc1ccc2c(c1)OCO2 (centres unmarked) | 2.64%
55 | O=C(Nc1ccc(C(=O)O)cc1)/C(=C\c1ccc2c(c1)OCO2)NC(=O)c1ccc(Br)cc1 | 5.36%
56 | C/C(CCc1ccc2c(c1)OCO2)=N\N=C(/N)SC1CC(=O)N(c2ccccc2F)C1=O (centres unmarked) | -4.74%
57 | CCN(CC)c1nc(Oc2ccc(C(=O)NN)cc2)nc(Oc2ccc(C(=O)NN)cc2)n1 | 9.31%
58 | CCN(CC)S(=O)(=O)c1cccc(NC2=NCC(C)S2)c1 (centres unmarked) | -19.8%
59 | CCNc1nc(NCC)nc(-n2nc(C)cc2C)n1 | 3.29%
60 | COc1ccc2[nH]c(=O)c(CN(C(C)=O)c3cccc(C)c3)cc2c1 | -8.64%
61 | Cc1ccc(S(=O)(=O)N2CCN(c3ncnc4c3cnn4-c3ccccc3)CC2)cc1 | 14.3%
62 | COc1ccc(CCNC2=C(Cl)C(=O)N(CCc3ccccc3)C2=O)cc1OC | 1.61%
63 | O=C(c1ccccc1)c1cccn1CC(=O)N1CCc2ccccc2C1 | -5.14%
64 | O=C1CC(CSc2ccc(Cl)cc2)=NN1 | 9.66%
65 | CCC(C)/C(C)=N/NC(=O)c1ccccc1OCCOc1ccccc1 (centres unmarked) | -30.3%
66 | CCOc1ccc(S(=O)(=O)Nc2ccc(S(=O)(=O)N3CCCC3)cc2)cc1 | -3.38%
67 | O=C(Cn1nnc(-c2ccc(S(=O)(=O)N3CCCC3)cc2)n1)Nc1ccccc1-n1cccc1 | 0.379%
68 | COc1ccc2[nH]c(C)c(C(=O)CN3CC(C)OC(C)C3)c2c1 (centres unmarked) | 3.52%
69 | CC(=O)Nc1nonc1-c1nc2ccccc2n1Cc1ccccc1 | 13.2%

Row | SMILES | hERG current change (%, negative = inhibition) at 10uM
70 | O=C(CCCCCN1C(=O)c2ccccc2C1=O)NC1CCCC1 | 6.64%
71 | CC(C)(CNc1ccc([N+](=O)[O-])cc1Cl)CNS(C)(=O)=O | -1.02%
72 | COc1ccc2c3c([nH]c2c1)[C@H]1C[C@H]2[C@H](C[C@@H](O)[C@H](OC)[C@H]2C(=O)O)CN1CC3.Cl | -7.9%
73 | Cc1cc(=O)[nH]c(SCC(=O)Nc2ccc(Br)cc2)c1C#N | 8.39%
74 | FC(F)(F)c1ccc(Oc2ccc3cc(Br)ccc3c2)nc1 | 10.1%
75 | Cc1cc(NC(=O)c2cccnc2)ccc1Br | 9.26%
76 | CCO/C=C1\N=C(c2ccc(F)cc2)OC1=O | 7.48%
77 | Cc1cccc(-n2c3nc(=O)[nH]c(=O)c-3cc3cc([N+](=O)[O-])ccc32)c1 | -35.1%
78 | O=C(CSc1ccc2nnc(-c3cccnc3)n2n1)Nc1ccccc1C(F)(F)F | -33.3%
79 | Cc1ccc(C)c(NC(=O)COC(=O)Cc2ccsc2)c1 | 33.1%
80 | c1cncc(-c2nnc(-c3cccs3)o2)c1 | 8.22%
81 | O=C(CSc1nncs1)N1CCN(S(=O)(=O)c2ccccc2)CC1 | -4.25%
82 | CC(C)(C)C(=O)COC(=O)C1=NN(c2ccccc2)C(=O)CC1 | 11.5%
83 | N#CCCN(Cc1cccnc1)C(=O)Nc1cccc(Cl)c1 | -10.9%
84 | O=C(Nc1ccccc1C(=O)N1CCCC1)c1ncoc1-c1cccc(Cl)c1 | -26%
85 | Cc1ccc(C(C(=O)NCC2CCCO2)N(C(=O)c2snc(C(N)=O)c2N)c2ccc3c(c2)OCCO3)cc1 (centres unmarked) | -1.52%
86 | CCOc1ccc(S(=O)(=O)N2CCN(c3ccc(OC)cc3)CC2)c2cccnc12 | -9.79%
87 | COc1ccc(C(=O)Nc2ccc(OCc3ccccc3)cc2)cc1[N+](=O)[O-] | 8.97%
88 | O=C(CNC(=S)N(Cc1ccccc1)Cc1ccccc1F)NCCc1ccccc1 | 3.73%
89 | COc1ccc(N2CC(C)Cn3c2nc2c3c(=O)[nH]c(=O)n2C)cc1 (centres unmarked) | -24.3%
